{
  "source": "paper PMC4336329",
  "about": "(PLoS ONE, 2015)",
  "note": "Out of some 310,000 compounds screened, about 2,200 (0.71%) showed an effect of 50% or more. The effect is printed as a negative number. The list shows a part of the results.",
  "data": [
    {"target": "human ether-à-go-go-related gene (hERG) potassium channel (human, UniProt Q12809)", "sequence (Q12809 whole entry, looked up)": "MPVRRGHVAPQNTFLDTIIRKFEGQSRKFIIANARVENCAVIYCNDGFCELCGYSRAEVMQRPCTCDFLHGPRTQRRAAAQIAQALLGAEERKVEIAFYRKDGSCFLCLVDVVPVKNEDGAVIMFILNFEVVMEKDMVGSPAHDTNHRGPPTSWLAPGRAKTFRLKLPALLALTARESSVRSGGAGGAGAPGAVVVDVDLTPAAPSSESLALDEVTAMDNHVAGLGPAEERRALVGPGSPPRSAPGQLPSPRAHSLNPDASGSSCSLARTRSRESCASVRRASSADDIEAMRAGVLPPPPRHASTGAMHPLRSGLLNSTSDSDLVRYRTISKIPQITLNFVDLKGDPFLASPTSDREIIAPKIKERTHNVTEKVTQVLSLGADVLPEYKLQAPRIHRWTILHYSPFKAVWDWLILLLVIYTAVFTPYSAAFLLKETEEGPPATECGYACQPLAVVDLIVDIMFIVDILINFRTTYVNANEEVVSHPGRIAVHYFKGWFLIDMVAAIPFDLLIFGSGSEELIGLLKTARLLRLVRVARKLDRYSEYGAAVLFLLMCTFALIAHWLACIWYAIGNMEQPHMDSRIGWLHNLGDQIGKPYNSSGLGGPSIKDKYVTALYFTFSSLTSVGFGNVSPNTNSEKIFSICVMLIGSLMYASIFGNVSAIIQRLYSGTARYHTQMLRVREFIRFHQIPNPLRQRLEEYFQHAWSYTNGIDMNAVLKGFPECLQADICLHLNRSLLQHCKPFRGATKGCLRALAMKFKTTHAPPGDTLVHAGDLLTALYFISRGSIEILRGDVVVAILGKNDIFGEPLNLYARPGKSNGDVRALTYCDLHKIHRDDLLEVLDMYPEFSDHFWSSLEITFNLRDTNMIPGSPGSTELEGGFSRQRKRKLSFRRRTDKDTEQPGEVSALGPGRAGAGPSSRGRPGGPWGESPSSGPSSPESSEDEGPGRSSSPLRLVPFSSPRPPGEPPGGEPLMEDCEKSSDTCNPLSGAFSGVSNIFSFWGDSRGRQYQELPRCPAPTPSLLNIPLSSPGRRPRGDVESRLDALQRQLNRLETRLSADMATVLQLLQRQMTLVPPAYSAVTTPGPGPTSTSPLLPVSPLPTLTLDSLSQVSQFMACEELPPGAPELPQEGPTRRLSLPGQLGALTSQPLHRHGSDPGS", "assay": "primary screen, population patch clamp on CHO cells stably expressing hERG", "units": {"hERG current change (%, negative = inhibition) at 1uM": "%"}, "values": [
      {"smiles": "S=C(NCc1ccco1)Nc1cccc(Cl)c1", "hERG current change (%, negative = inhibition) at 1uM": -6.53},
      {"smiles": "CCOC(=O)Cc1csc(NC(=O)Nc2cccc(OC)c2)n1", "hERG current change (%, negative = inhibition) at 1uM": 8.01},
      {"smiles": "COc1cc(/C=C/C(=O)N[C@@H](Cc2c[nH]c3ccccc23)C(=O)O)ccc1O", "hERG current change (%, negative = inhibition) at 1uM": 9.64},
      {"smiles": "CCc1cccc(NC(=O)CCCn2c(=O)[nH]c3ccsc3c2=O)c1", "hERG current change (%, negative = inhibition) at 1uM": 19.3},
      {"smiles": "COc1ccc(C(C)NC(=S)NC2CCCC2)cc1OC", "note": "(centres unmarked)", "hERG current change (%, negative = inhibition) at 1uM": 5.57},
      {"smiles": "CCOc1cc(/C=N/N=C2/NC(=O)C(CC(=O)O)S2)ccc1OCc1ccc(Cl)cc1", "note": "(centres unmarked)", "hERG current change (%, negative = inhibition) at 1uM": 4.76},
      {"smiles": "O=C(CSCc1cc(=O)[nH][nH]1)Nc1ccc(F)cc1", "hERG current change (%, negative = inhibition) at 1uM": 36.6},
      {"smiles": "O=C(NCCCNC(=O)c1cc(Cl)ccc1Cl)c1cnccn1", "hERG current change (%, negative = inhibition) at 1uM": 8.38},
      {"smiles": "O=C(COC(=O)C1(c2ccccc2F)CCCC1)NCc1ccc2c(c1)OCO2", "hERG current change (%, negative = inhibition) at 1uM": 2.35},
      {"smiles": "CCOC(=O)C1=C(COC(=O)CCNS(=O)(=O)c2ccc(C)c(C)c2)NC(=O)NC1C", "note": "(centres unmarked)", "hERG current change (%, negative = inhibition) at 1uM": 10.7},
      {"smiles": "Cc1ccc(S(=O)(=O)N2CCCCC2)cc1NC(=O)Cn1ccc(C(F)(F)F)n1", "hERG current change (%, negative = inhibition) at 1uM": -3.5},
      {"smiles": "CCOC(=O)c1sc(NC(=O)C2=COCCO2)c(C#N)c1C", "hERG current change (%, negative = inhibition) at 1uM": 13.2},
      {"smiles": "COc1cc2c(cc1OC)CC(C(=O)NCc1ccccc1)NC2", "note": "(centres unmarked)", "hERG current change (%, negative = inhibition) at 1uM": 14.5},
      {"smiles": "Cc1cc(C=O)c(C)n1C1CCCCC1", "hERG current change (%, negative = inhibition) at 1uM": 8.41},
      {"smiles": "CCCS(=O)(=O)N1CCN(c2ccccc2F)CC1", "hERG current change (%, negative = inhibition) at 1uM": 14},
      {"smiles": "O=C(Cc1ccc(Br)cc1)OCC(=O)N1CCc2ccccc2C1", "hERG current change (%, negative = inhibition) at 1uM": 13.8},
      {"smiles": "CCOc1c(C)cnc2c1c(=O)n(Cc1ccccc1Cl)c(=O)n2C", "hERG current change (%, negative = inhibition) at 1uM": 14.1},
      {"smiles": "COc1cc(OC)c(OC)cc1/C=C1/C(=O)N=C(N)N1C", "hERG current change (%, negative = inhibition) at 1uM": -7.58},
      {"smiles": "O=C(Cn1c(S(=O)(=O)Cc2ccccc2)nc2ccccc21)N1CCCCC1", "hERG current change (%, negative = inhibition) at 1uM": -0.347},
      {"smiles": "Cc1ccc(S(=O)(=O)NC(=O)c2cccc(C)c2)cc1", "hERG current change (%, negative = inhibition) at 1uM": 10.3},
      {"smiles": "Cc1ccc(C(C(=O)NCc2ccco2)N(C(=O)CNC(=O)c2cccs2)c2ccc(C)cc2)cc1", "note": "(centres unmarked)", "hERG current change (%, negative = inhibition) at 1uM": 29.1},
      {"smiles": "Cc1cc(C)cc(C(=O)NCC(=O)NCCc2c[nH]c3ccccc23)c1", "hERG current change (%, negative = inhibition) at 1uM": 14.5},
      {"smiles": "COc1cc(S(=O)(=O)Nc2ncn[nH]2)ccc1Cl", "hERG current change (%, negative = inhibition) at 1uM": 13.5},
      {"smiles": "Cc1ccccc1CNC(=O)c1cc(COc2ccc(F)cc2F)on1", "hERG current change (%, negative = inhibition) at 1uM": 12.1},
      {"smiles": "COC(=O)c1ccc2c(=O)n(Cc3ccc(C(=O)NCCCN4CCC(C)CC4)cc3)c(=S)[nH]c2c1", "hERG current change (%, negative = inhibition) at 1uM": 11.6},
      {"smiles": "Cc1ccc(NC(=O)CSc2nncn2-c2ccccn2)cc1Cl", "hERG current change (%, negative = inhibition) at 1uM": 16.5},
      {"smiles": "CCN(C(=O)CN1C(=O)NC(CCSC)C1=O)C1CCS(=O)(=O)C1", "note": "(centres unmarked)", "hERG current change (%, negative = inhibition) at 1uM": 2.9},
      {"smiles": "Cc1cccc(N2C(=O)/C(=C\\c3ccc(OC(F)F)cc3)c3ccccc3C2=O)c1", "hERG current change (%, negative = inhibition) at 1uM": 11.9},
      {"smiles": "CC(C)(C)C(=O)OC/C(N)=N/OC(=O)c1ccccc1", "hERG current change (%, negative = inhibition) at 1uM": 11},
      {"smiles": "CN(C(=O)COC(=O)c1ccc([N+](=O)[O-])cc1Cl)C1CCCCC1", "hERG current change (%, negative = inhibition) at 1uM": -8.94},
      {"smiles": "Cc1c(S(=O)(=O)Nc2cccc(Cl)c2)c(=O)n(C)c(=O)n1C", "hERG current change (%, negative = inhibition) at 1uM": 10.7},
      {"smiles": "Cc1cc(S(=O)(=O)N2CC(=O)N(CCc3ccccc3)C(=O)C2)ccc1F", "hERG current change (%, negative = inhibition) at 1uM": 13.7},
      {"smiles": "Cc1cccc(N2C(=O)C(Cl)=C(Nc3c(C)n(C)n(-c4ccccc4)c3=O)C2=O)c1C", "hERG current change (%, negative = inhibition) at 1uM": 15.3},
      {"smiles": "COc1ccc(-c2oc3ccccc3c2C(=O)OCc2ccccc2)cc1", "hERG current change (%, negative = inhibition) at 1uM": 14},
      {"smiles": "CC(=O)Nc1cccc(NC(=O)CS(=O)(=O)c2cn(CC(=O)N(C(C)C)C(C)C)c3ccccc23)c1", "hERG current change (%, negative = inhibition) at 1uM": 11.9},
      {"smiles": "COc1cc(C2Sc3ccccc3NC3=C2C(=O)OC3)cc(OC)c1OC", "note": "(centres unmarked)", "hERG current change (%, negative = inhibition) at 1uM": 0.302},
      {"smiles": "COc1ccc(CNC(=O)CSc2nnc(NC(=O)C3CC3)s2)cc1", "hERG current change (%, negative = inhibition) at 1uM": 11.5},
      {"smiles": "Cc1cc(NC(=O)CCC(=O)N(CC(=O)NC2CCCC2)c2ccc(Cl)c(Cl)c2)no1", "hERG current change (%, negative = inhibition) at 1uM": 0.544},
      {"smiles": "CCCCCCCc1c(C#N)c(N)[nH]c(=S)c1C#N", "hERG current change (%, negative = inhibition) at 1uM": 15.7},
      {"smiles": "O=Cc1cccc(OC(=O)/C=C/c2ccco2)c1", "hERG current change (%, negative = inhibition) at 1uM": 16.1},
      {"smiles": "CCCCCC(=O)N1CC2(CC(c3cccc(NC(=O)CC)c3)=NO2)C[C@H]1C(N)=O", "note": "(some centres unmarked)", "hERG current change (%, negative = inhibition) at 1uM": 3.29},
      {"smiles": "C/C(=C\\C(=O)c1cccnc1)Nc1ccc(O)cc1", "hERG current change (%, negative = inhibition) at 1uM": -11.6},
      {"smiles": "Cc1cc(NC(=O)CSc2nnc(C3COc4ccccc4O3)n2C)no1", "note": "(centres unmarked)", "hERG current change (%, negative = inhibition) at 1uM": 6.02},
      {"smiles": "COc1ccc(C(=O)NC2CC(C)(C)Cc3occc32)cc1", "note": "(centres unmarked)", "hERG current change (%, negative = inhibition) at 1uM": -7.54}
    ]}
  ]
}
